# Reference: PMC4336329 (PLoS ONE, 2015)
# The campaign covered roughly 310,000 compounds. About 2,200 (0.71%) showed an effect of 50% or more. Effects have a minus sign here. This is one part of the list.
# Target: human ether-à-go-go-related gene (hERG) potassium channel (human, UniProt Q12809)
# Assay: primary screen, population patch clamp on CHO cells stably expressing hERG
# Chain of human ether-à-go-go-related gene (hERG) potassium channel (Q12809 whole entry, looked up): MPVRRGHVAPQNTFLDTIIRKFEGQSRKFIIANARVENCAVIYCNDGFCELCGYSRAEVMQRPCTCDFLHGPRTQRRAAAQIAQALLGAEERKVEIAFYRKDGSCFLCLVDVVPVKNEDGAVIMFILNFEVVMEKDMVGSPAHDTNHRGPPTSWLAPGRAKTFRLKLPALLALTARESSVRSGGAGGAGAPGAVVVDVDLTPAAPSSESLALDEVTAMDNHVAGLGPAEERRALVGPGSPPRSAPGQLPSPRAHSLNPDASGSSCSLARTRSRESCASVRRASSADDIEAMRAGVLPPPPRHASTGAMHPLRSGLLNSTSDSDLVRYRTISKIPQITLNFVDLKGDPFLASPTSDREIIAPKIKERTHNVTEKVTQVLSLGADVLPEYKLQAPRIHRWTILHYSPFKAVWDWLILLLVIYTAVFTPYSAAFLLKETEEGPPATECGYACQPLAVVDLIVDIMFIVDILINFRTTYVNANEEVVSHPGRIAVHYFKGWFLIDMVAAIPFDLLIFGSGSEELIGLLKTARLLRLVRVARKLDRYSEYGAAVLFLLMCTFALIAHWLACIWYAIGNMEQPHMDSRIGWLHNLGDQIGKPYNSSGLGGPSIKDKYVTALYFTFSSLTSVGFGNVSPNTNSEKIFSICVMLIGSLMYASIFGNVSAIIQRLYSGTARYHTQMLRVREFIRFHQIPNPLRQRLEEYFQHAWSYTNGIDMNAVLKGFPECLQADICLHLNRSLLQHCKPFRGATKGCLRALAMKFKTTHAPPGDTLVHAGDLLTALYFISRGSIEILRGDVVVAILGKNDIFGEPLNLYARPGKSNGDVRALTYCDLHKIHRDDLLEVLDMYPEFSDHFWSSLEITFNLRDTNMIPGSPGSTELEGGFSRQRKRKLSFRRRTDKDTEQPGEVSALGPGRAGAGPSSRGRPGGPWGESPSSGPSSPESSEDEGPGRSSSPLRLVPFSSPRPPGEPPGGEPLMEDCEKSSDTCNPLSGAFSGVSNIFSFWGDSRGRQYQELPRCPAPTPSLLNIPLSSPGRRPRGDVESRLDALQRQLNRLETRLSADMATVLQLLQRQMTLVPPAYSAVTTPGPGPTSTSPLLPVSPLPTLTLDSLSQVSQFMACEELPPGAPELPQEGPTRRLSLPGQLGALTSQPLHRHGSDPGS
row,SMILES,"hERG current change (%, negative = inhibition) at 1uM [%]"
1,Cc1ccc(NC(=O)CSc2ncc3ccccn23)cc1,11.1
2,CCOCCCn1c(=S)[nH]c2cc(C(=O)N3CCN(c4ccccc4)CC3)ccc2c1=O,15.4
3,Cc1ccccc1CN1C(=O)Nc2ccccc2C(=O)N1C(C)(C)C,5.98
4,COc1cc(NC(=O)CN(C)S(=O)(=O)c2ccc3c(c2)CC(C)N3C(C)=O)cc(OC)c1OC (stereo not drawn),17.2
5,Cn1cccc1/C=N/n1cnnc1,-2.75
6,Cc1ccc(C(C)C)c(OCC(=O)N2CCOCC2)c1,2.8
7,COCCNC(=O)C(OC(=O)c1ccco1)c1ccccc1OC (stereo not drawn),11.2
8,c1ccc(CSc2nnc(-c3ccccc3)c(-c3ccccc3)n2)cc1,6.21
9,O=C(Cn1cc(C(F)(F)F)ccc1=O)N/N=C/c1ccc(O)cc1,12.3
10,COc1ccc(/C(C)=N/NC(=O)CNC(=O)/C=C\c2ccccc2)c(OC)c1,12.2
11,COCCNC(=O)CSc1nc2cc(OC)c(OC)cc2c(=O)n1Cc1ccco1,-14.1
12,Cc1ccc(C(=O)SC2=NCCS2)cc1,5.07
13,OCc1ccccc1SSc1ccccc1CO,13.8
14,O=C(Nc1nccs1)C1CC=CCC1 (stereo not drawn),14.4
15,O=C(Cc1ccon1)c1ccc(O)cc1O,11.3
16,Cc1ccc(OCC(=O)Nc2ccc(-c3nc4ncccc4o3)cc2)cc1,14.1
17,O=C1/C(=C\c2cc(Br)cc(Br)c2O)SC(=S)N1Cc1ccccc1,14.5
18,CC(C)n1c(-c2cccnc2)nc2cnccc21,8.82
19,C=CCNc1nc(N)c(C(=O)Nc2cc(C)on2)s1,12.5

row,SMILES,"hERG current change (%, negative = inhibition) at 1uM [%]"
1,Cc1[nH]c2ccccc2c1C(=O)CSc1nc2ncc(Cl)cc2[nH]1,14.3
2,COC(=O)[C@]1(Cc2ccccc2)N[C@H](c2ccc(-c3ccc(F)cc3)cc2)[C@@H]2C(=O)N(C)C(=O)[C@@H]21.O=C(O)C(F)(F)F,13.4
3,Cc1oc(-c2nc3ccccc3n2C)cc1C(=O)c1ccccc1,7.96
4,Cc1cc(SCC(=O)Nc2cccc(S(=O)(=O)NC3=NCCCCC3)c2)nc2ccccc12,-1.53
5,CCC(C)(C)NC(=O)C(c1ccncc1)N(Cc1cccs1)C(=O)Cn1nnc2ccccc21 (stereo not drawn),-13
6,O=C1CCC([N+](=O)[O-])C(c2ccc(Cl)cc2)N1 (stereo not drawn),-0.713
7,CC(C)CC(/C(O)=C(\C#N)c1nc2ccccc2[nH]1)N1C(=O)c2ccccc2C1=O (stereo not drawn),16.4
8,CCN(CC(=O)Nc1c(F)cccc1F)C(=O)CCNS(=O)(=O)c1ccccc1C(F)(F)F,12.3
9,CCc1cc2c(cc3c(=O)n(CC(=O)NCCCN(CC)CC)nc(CC)n32)s1,8.7
10,N#CC1(CCCN2CCCCC2)c2ccccc2CCc2ccccc21.O=C(O)C(=O)O,-28.3
11,CCOc1ccccc1N1CCN(S(=O)(=O)c2cc(C)ccc2OC)CC1,10.1
12,CN1/C(=C\C(=S)NC(=O)c2ccccc2Cl)C(C)(C)c2ccccc21,18.4
13,COc1cc2c(cc1O)[C@@H]1Cc3cc(OC)c(OC)cc3C(C2)N1C,7.84
14,Cc1nc2ccc(C(=O)O)cc2c2c1CC(CN)O2 (stereo not drawn),18
15,COc1cc(C(=O)NC2CCN(CC(=O)Nc3cccc(C)c3C)CC2)cc(OC)c1OC,3.41
16,C(=N\Nc1ccc(-n2ccnc2)nn1)/c1ccccc1,7.51
17,CCc1cc2c(N=Nc3c(O)[nH]c4ccccc34)ncnc2s1,14.1
18,Cn1cc([N+](=O)[O-])c(C(=O)N/N=C/c2cc3c(cc2Br)OCO3)n1,8.91
19,Cc1cc(-c2n[nH]c(=S)n2-c2ccccc2)nn1C,11.1

row,SMILES,"hERG current change (%, negative = inhibition) at 1uM [%]"
1,Cc1ccc2c(c1)c(=O)c1c3n2CCN(C(=O)CCl)C3CC1 (stereo not drawn),7.46
2,COC/C=C/C1=CC2=CC(=O)C(C)(OC(=O)c3cnc4ccccc4n3)C(=O)C2=CN1c1cccc(C#N)c1 (stereo not drawn),7.85
3,COC(=O)C1=C(CN2CCCc3ccccc32)NC(=O)NC1c1ccc(F)cc1 (stereo not drawn),1.29
4,O=C1C=C(c2ccccc2)CC(c2ccc(F)cc2)C1 (stereo not drawn),-3.42
5,Cc1nc2c(-c3ccccc3)c(C)[nH]n2c(=O)c1Cc1ccccc1,4.93
6,CCOc1ccc(NS(=O)(=O)c2cc(C)c(C)cc2C)cc1,1.9
7,CCN1CCN(C(=O)c2ccc(Cl)c(S(=O)(=O)N3CCCCCC3)c2)CC1.Cl,-14
8,COc1ccc2c(c1OC)C(=O)OC2Nc1nc2ccccc2s1 (stereo not drawn),8.65
9,O=C1CCCC(O)=C1C(C#Cc1ccccc1)C1=C(O)CCCC1=O,2.05
10,O=c1cc(-c2ccccc2)nc(SCc2ccccc2F)[nH]1,9.43
11,Cc1ccc(NC(=O)c2cc3ccccc3oc2=O)cc1S(=O)(=O)N(C)C,17.8
12,COCCn1c(SCC(=O)Nc2c(C)n(C)n(-c3ccccc3)c2=O)nnc1-c1ccncc1,15.3
13,Cc1ccc(CN2CCNC(=O)C2CC(=O)O)cc1 (stereo not drawn),9.25
14,CCCCOc1cc(C(=O)OCCN(CC)CC)ccc1N.Cl,-23.2
15,CC(=O)Nc1nc(C)c(Oc2cccc(C(F)(F)F)c2)c(=O)[nH]1,12.1
16,CCOC(=O)C1(CCc2ccccc2)CCN(Cc2ccc(OC)cc2)CC1,-86.9
17,O=C(Cn1cc(C(F)(F)F)ccc1=O)Nc1ccc(N2CCOCC2)cc1,-0.732
18,NC(=S)Nc1cccc2cn[nH]c12,-1.62
19,COc1ccc(CCC(=O)NCCc2ccc(OC)c(OC)c2)cc1,19
